# Source: PubChem BioAssay AID624417 (National Center for Advancing Translational Sciences (NCATS), 2012)
# Several values for one entry are separate records, joined by “and”; a condition that tells them apart may be missing. Equal entries are not always repeated. Screen size: about 410,000 compounds; about 6,400 (1.6%) were called active. Inconclusive results, whose numbers are uncertain, are shown with a selection of clear calls. Calls follow the shape of the dose curve; as a rule, active = well fitted inhibition curve with a large enough effect; inconclusive = small, poorly fitted or top-dose-only effect; inactive = no such curve, though single readings can be large or run the other way. Potencies of inconclusive entries are doubtful fits and often do not repeat.
# Biological target: Glucagon-like peptide 1 receptor (Homo sapiens) (UniProt P43220)
# Chain of UniProt P43220 (P43220 whole entry, looked up): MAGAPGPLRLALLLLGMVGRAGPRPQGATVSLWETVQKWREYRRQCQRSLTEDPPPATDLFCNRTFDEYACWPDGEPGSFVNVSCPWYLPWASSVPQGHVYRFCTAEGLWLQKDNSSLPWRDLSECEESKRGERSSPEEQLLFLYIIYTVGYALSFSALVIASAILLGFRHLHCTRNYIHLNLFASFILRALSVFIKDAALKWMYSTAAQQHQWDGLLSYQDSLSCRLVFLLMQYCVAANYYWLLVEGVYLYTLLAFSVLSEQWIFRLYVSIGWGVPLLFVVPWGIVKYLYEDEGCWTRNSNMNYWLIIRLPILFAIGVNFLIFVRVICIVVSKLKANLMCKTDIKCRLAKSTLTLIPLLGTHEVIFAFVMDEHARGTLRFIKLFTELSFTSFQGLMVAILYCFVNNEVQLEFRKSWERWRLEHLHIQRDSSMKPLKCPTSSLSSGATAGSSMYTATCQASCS
# Assay: qHTS of GLP-1 Receptor Inverse Agonists (Inhibition Mode); also: nearly all actives have a fitted effect of over 55% in size
# Details: HEK293 GLP-1R CRE-luciferase, luminescence, 24 h, GLP-1R form is constitutively active; activity change, negative = inhibition: at 38.3 µM (top of the series) unless noted
# Method in brief: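 Inverse agonists were sought by their lowering of basal cAMP reporter luciferase output in HEK293 cells stably carrying constitutively active human GLP-1R, after 24 h compound treatment.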
# % is scaled to controls: 0 for no effect and ±100 for the full control effect; potency is read from the fitted curve at half-maximal effect; tags tell the direction and shape of the fitted curve.
Structure (SMILES),"activity change, negative = inhibition",Potency
O=C(CN1CCCCCC1)Nc1cc([N+](=O)[O-])ccc1Cl,inactive: 21.7%,–
COc1ccc(OC)c(/C=N/NC(=O)CCc2ccc(O)c(O)c2)c1,inactive: 21.3%,–
CCNC(=S)N1CCc2cc(OC)c(OC)cc2C1COc1ccc(OC)cc1 (stereo unspecified),–,"inconclusive: 28.2 µM [inhibitor, single point]"
COc1ccc(Cl)cc1NC(=O)CN(C)CC(=O)NCc1cccs1,–,"inconclusive: 28.2 µM [inhibitor, single point]"
O=C(NC(=S)Nc1ccccc1)c1cc(-c2ccccc2)nc2ccccc12,–,"inconclusive: 3.55 µM [inhibitor, full curve]"
CCCc1ccc(NC(=O)C2CCN(c3cnccn3)CC2)cc1,–,"inconclusive: 7.94 µM [inhibitor, partial curve] and inconclusive: 3.98 µM [inhibitor, partial curve, poor fit]"
Cc1ccc(NC(=O)Cc2ccc(NC(=O)N3CCCCc4ccccc43)cc2)cc1,–,active: 7.94 µM
CCCOc1ccc(C(=O)C(CN2CCCC2)c2ccccc2)cc1 (stereo unspecified),–,"inconclusive: 6.31 µM [inhibitor, partial curve, poor fit]"
Cc1csc(SCC(=O)Nc2cc(C(C)(C)C)nn2-c2ccccc2)n1,–,"inconclusive: 8.91 µM [inhibitor, partial curve, poor fit]"
Cc1nn(Cc2ccccc2)c(C)c1C(=O)OCC(=O)c1cc(C)n(C2CC2)c1C,–,"inconclusive: 10 µM [inhibitor, partial curve, poor fit]"
Cc1cccc(C(=O)c2c(N)sc3c2CCCC3)c1,–,"inconclusive: 11.2 µM [inhibitor, single point]"
O=C(Nc1nnc(SCc2ccc(F)cc2)s1)c1ccccn1,–,"inconclusive: 5.62 µM [inhibitor, full curve, poor fit]"
CCCN(CCC)S(=O)(=O)c1ccc(C(=O)Nc2nnc(-c3cccc(OC)c3)o2)cc1,inactive: 22.4%,–
O=C(Cc1ccc(S(=O)(=O)N2CCCCC2)s1)Nc1ccc(F)cc1F,–,"inconclusive: 28.2 µM [inhibitor, single point]"
COc1ccc(NC(=O)c2ccco2)cc1NC(=O)COc1ccc(C)cc1C,inactive: 13.6%,–
O=C(CN(Cc1ccccc1Cl)C(=O)c1csnn1)NCc1ccc2c(c1)OCO2,–,"inconclusive: 12.6 µM [inhibitor, partial curve, poor fit]"
Cc1cccc(C)c1N1CCN(c2ccc3nnc(C(F)(F)F)n3n2)CC1,–,"inconclusive: 28.2 µM [inhibitor, single point]"
CC(=O)N1N=C(c2ccc(C)cc2)CC1c1ccc2c(c1)OCO2 (stereo unspecified),inactive: -29%,–
CN1C(C(=O)NCc2ccc(OC(F)(F)F)cc2)CC2Cn3c(nc4cc5ccccc5cc43)C21 (stereo unspecified),–,"inconclusive: 28.2 µM [inhibitor, single point]"
CCN1C(=O)[C@H]2[C@@H](c3ccc(-c4ccccc4)cc3)N3CCC[C@@]3(C(=O)OC)[C@H]2C1=O,–,"inconclusive: 12.6 µM [inhibitor, partial curve, poor fit]"
CC(=Nc1ccccc1)C1=C(O)C(Cc2ccc(F)cc2)NC1=O (stereo unspecified),–,"inconclusive: 1.12 µM [inhibitor, full curve]"

Structure (SMILES),"activity change, negative = inhibition",Potency
CN(Cc1ccccc1)Cc1c(O)ccc2ccccc12,–,"inconclusive: 7.08 µM [inhibitor, partial curve, poor fit]"
CCN1CCN(CCCNC(=O)Cn2nc(C)n3c(cc4cc(C)ccc43)c2=O)CC1,inactive: 12.1%,–
COc1ccc2oc(C(=O)N3CCN(S(=O)(=O)c4c(C)c(C)cc(C)c4C)CC3)c(C)c2c1,–,"inconclusive: 3.98 µM [inhibitor, partial curve]"
Cn1c(=O)c2[nH]c(NN=Cc3cccc(Br)c3)nc2n(C)c1=O,–,"inconclusive: 28.2 µM [inhibitor, single point]"
Cc1ccc(NS(=O)(=O)c2ccc(-n3cccn3)cc2)cc1F,–,"inconclusive: 11.2 µM [inhibitor, partial curve, poor fit]"
O=C(CN(c1ccccc1Cl)S(=O)(=O)c1ccccc1)NCc1ccccc1,inactive: -28.5%,–
O=S(=O)(NCCc1ccccc1)c1cnc(Cl)c(Br)c1,–,"inconclusive: 28.2 µM [inhibitor, single point]"
Cc1nc2c(nc1C)C(=O)c1ccccc1C2=O,–,"inconclusive: 20 µM [inhibitor, single point]"
O=C(CSc1ncnc2c1oc1ccccc12)Nc1cccc(C(F)(F)F)c1,–,"inconclusive: 22.4 µM [inhibitor, single point]"
CCOc1ccc(OCCC(=O)N(CC(=O)Nc2ccccc2C(F)(F)F)Cc2ccco2)cc1,–,"inconclusive: 3.16 µM [inhibitor, single point]"
Cc1cc(C)cc(NC(=O)CCc2ccc(C)o2)c1,–,"inconclusive: 7.94 µM [inhibitor, partial curve]"
CN(CCc1ccccc1)C(=O)c1cccc(NC(=O)Cc2cccc(NC(=O)C3CCCN(C(=O)C4CCCC4)C3)c2)c1 (stereo unspecified),–,"inconclusive: 3.55 µM [inhibitor, partial curve, poor fit]"
N#Cc1cccc(C(c2nnnn2C2CCCC2)N2CCC(Cc3ccccc3)CC2)c1 (stereo unspecified),–,"inconclusive: 12.6 µM [inhibitor, partial curve, poor fit]"
CC(Oc1ccc(Cl)cc1Cl)C(=O)N(Cc1ccco1)C1CCS(=O)(=O)C1 (stereo unspecified),–,"inconclusive: 8.91 µM [inhibitor, partial curve, poor fit]"
Cc1cccc(N2CCN(C(=O)c3ccc(Cl)c(S(=O)(=O)N4CCc5ccccc5C4)c3)CC2)c1C,–,active: 7.08 µM
CN1CCN(c2ccc(Cl)cc2NC(=O)c2ccc([N+](=O)[O-])cc2)CC1,–,"inconclusive: 12.6 µM [inhibitor, partial curve, poor fit]"
Cc1ccc(-c2csc(Nc3ccccn3)n2)cc1,–,"inconclusive: 11.2 µM [inhibitor, partial curve, poor fit]"
O=C(N[C@@H]1C/C=C\C[C@H](CC(=O)N(CCO)Cc2ccccc2)C(=O)NC[C@@H](c2ccccc2)OC1=O)OCC1c2ccccc2-c2ccccc21,–,"inconclusive: 28.2 µM [inhibitor, single point]"
N#Cc1ccc(NCC(=O)Nc2ccc(S(=O)(=O)N3CCCCC3)cc2)cc1,–,"inconclusive: 17.8 µM [inhibitor, single point]"
COC(=O)CCC(=O)NNC(=O)C1CC1(c1ccccc1)c1ccccc1 (stereo unspecified),inactive: 0.602%,–
O=C(CSC1=NNC(c2ccccn2)S1)Nc1ccc(C(F)(F)F)cc1 (stereo unspecified),–,"inconclusive: 3.98 µM [inhibitor, full curve, poor fit]"

Structure (SMILES),"activity change, negative = inhibition",Potency
CC1Cc2ccccc2N1C(=O)CCN1C(=O)C2C3C=CC(C3)C2C1=O (stereo unspecified),–,"inconclusive: 28.2 µM [inhibitor, single point]"
COc1ccc(S(=O)(=O)N(C)C)cc1NC(=O)Cc1cccs1,inactive: 13.9%,–
CCCN1CCN(C(=O)Cn2nc(C)n3c(cc4c(OC)cccc43)c2=O)CC1,inactive: 36.8%,–
CN(CCC#N)c1ccc(C=C(C#N)c2ccc(Br)cc2)cc1,–,active: 10 µM
CCCCSc1nc2ccc(Nc3nc(N4CCOCC4)nc(N4CCOCC4)n3)cc2s1,–,"inconclusive: 2 µM [inhibitor, partial curve, poor fit]"
Cc1cccc(N2CCN(C(=O)c3ccoc3C)CC2)c1C,–,"inconclusive: 8.91 µM [inhibitor, partial curve, poor fit]"
Cc1ccc(/C=N/Nc2nc3ccccc3s2)o1,–,"inconclusive: 28.2 µM [inhibitor, single point]"
CCC(C)Sc1ccc([C@H]2N[C@@](Cc3ccccc3)(C(=O)OC)[C@H]3C(=O)N(C)C(=O)[C@@H]23)cc1 (stereo partly specified),–,"inconclusive: 11.2 µM [inhibitor, single point]"
CCNC(=S)N/N=C/c1c(Cl)cccc1Cl,–,"inconclusive: 11.2 µM [inhibitor, partial curve, poor fit]"
Cc1cc2[nH]c3c4ccccc4nc(C)c3c2cc1C,–,"inconclusive: 28.2 µM [inhibitor, single point]"
Cn1c(=O)[nH]c(=O)c2c1nc(N1CCN(C(c3ccccc3)c3ccccc3)CC1)n2CCO,–,"inconclusive: 1.58 µM [inhibitor, full curve, poor fit]"
COc1ccc(N2CCN(C(=O)CCn3cnc4onc(-c5ccc(F)cc5)c4c3=O)CC2)cc1,–,"inconclusive: 14.1 µM [inhibitor, single point]"
COc1ccc(-n2nnnc2/C=C/Nc2cc(C(F)(F)F)ccc2OC)cc1,–,"inconclusive: 28.2 µM [inhibitor, single point]"
CC1CCN(C(=O)C2CCN(S(=O)(=O)c3ccc4c(c3)CC(C)N4C(=O)C3CC3)CC2)CC1 (stereo unspecified),inactive: 3.55%,–
COc1cccc(CNS(=O)(=O)c2ccc3c(c2)N(C)CCO3)c1,–,"inconclusive: 7.94 µM [inhibitor, partial curve, poor fit]"
CC1CC(N(C(=O)c2ccccc2Cl)c2ccccc2)c2ccccc2N1 (stereo unspecified),–,"inconclusive: 7.94 µM [inhibitor, partial curve]"
CN(C)S(=O)(=O)c1ccc(C(=O)N2CCN=C2SCc2cccnc2)cc1,–,"inconclusive: 35.5 µM [inhibitor, partial curve, poor fit]"
CC(C)(C)C1CCc2c(sc(NC(=O)c3ccncc3)c2C(=O)Nc2ccccc2Cl)C1 (stereo unspecified),inactive: -6.67%,–
Cc1cccc(CN2C(=O)c3ccccc3S(=O)(=O)c3ccc(C(=O)N4CCN(c5cc(C)ccc5C)CC4)cc32)c1,–,"inconclusive: 2.24 µM [inhibitor, full curve, poor fit]"
